# PMC3804274
# Sequences of proteins named here, by UniProt entry; tags and fusion partners are left off. A change or cut given only in a name is not applied to a line headed by its entry. A line that says so, or that is headed by a name, gives the form on record, which may keep a tag or linker. Residues count along the entry.
# UniProt P60520: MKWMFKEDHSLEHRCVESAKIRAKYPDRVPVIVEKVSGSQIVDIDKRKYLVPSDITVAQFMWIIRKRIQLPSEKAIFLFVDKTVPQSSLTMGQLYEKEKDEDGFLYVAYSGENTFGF
# UniProt Q6P9H5: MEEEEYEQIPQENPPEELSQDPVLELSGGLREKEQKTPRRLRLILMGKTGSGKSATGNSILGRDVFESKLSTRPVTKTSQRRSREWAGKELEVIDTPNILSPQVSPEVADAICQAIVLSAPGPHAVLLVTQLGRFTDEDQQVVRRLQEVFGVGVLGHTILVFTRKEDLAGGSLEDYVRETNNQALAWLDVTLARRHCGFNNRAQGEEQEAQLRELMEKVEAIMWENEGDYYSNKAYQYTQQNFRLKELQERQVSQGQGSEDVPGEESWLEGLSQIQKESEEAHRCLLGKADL
# biotGIMAP6 lacking the 10 terminal amino acid residues (amino acids 283-292): residues 1-282 of Q6P9H5
# biotGIMAP6 lacking the C-terminal domain (amino acids 244-292): residues 1-243 of Q6P9H5
# biotGIMAP6 lacking amino acids 1-36: residues 37-292 of Q6P9H5
# biotGIMAP6 arginine-134 to alanine (Q6P9H5, form named): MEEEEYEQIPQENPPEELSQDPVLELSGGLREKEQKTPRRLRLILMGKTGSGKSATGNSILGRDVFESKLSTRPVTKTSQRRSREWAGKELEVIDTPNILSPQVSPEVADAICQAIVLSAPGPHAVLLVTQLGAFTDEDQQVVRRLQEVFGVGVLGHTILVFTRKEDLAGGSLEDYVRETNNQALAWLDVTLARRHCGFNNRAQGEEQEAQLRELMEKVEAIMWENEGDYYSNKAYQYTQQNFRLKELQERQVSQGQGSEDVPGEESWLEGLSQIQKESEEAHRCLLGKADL
# UniProt Q8K349: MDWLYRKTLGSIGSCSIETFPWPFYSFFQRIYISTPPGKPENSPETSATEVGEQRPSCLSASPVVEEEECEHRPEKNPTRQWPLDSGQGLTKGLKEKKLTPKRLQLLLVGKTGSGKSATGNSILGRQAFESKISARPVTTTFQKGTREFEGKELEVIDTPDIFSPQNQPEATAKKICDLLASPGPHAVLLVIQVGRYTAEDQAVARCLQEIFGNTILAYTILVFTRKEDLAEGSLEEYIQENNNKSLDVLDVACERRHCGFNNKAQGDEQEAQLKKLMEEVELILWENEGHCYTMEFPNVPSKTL
# Results are given in words; binding and its absence hold for the method and conditions named. In cells and extracts the contact can be indirect. Some results given as binding are weak or reduced against the parent protein; the word gives no strength.
# How the values were obtained:
# [1] = target: biotinylated GABARAPL2 G116A (human) (UniProt P60520); experiment: pull-down; HEK293T co-transfected with a biotin-tagged bait (with BirA) and a myc- or HA-tagged prey; TX100 lysate; streptavidin-agarose, 4°C, 4 h; blot for the tag
# [2] = target: biotinylated GABARAPL2 lacking the N-terminal 10 amino acids (human) (UniProt P60520); experiment: as above
# [3] = target: biotGABARAPL2 (human GABARAPL2 in pcDNA3Biot1His6iresBirA), wild type (human) (UniProt P60520); experiment: as above
# [4] = target: biotGIMAP6 D167A (human) (UniProt Q6P9H5); experiment: pull-down; HEK293T transfected with biotin-tagged GIMAP6 or its mutants only; streptavidin-agarose 48 h after transfection; blot with MAC446 to GABARAPL2
# [5] = target: biotGIMAP6 I9A (human) (UniProt Q6P9H5); experiment: as above
# [6] = target: biotGIMAP6 T76A (human) (UniProt Q6P9H5); experiment: as above
# [7] = target: biotGIMAP6 Y6A (human) (UniProt Q6P9H5); experiment: as above
# [8] = target: biotGIMAP6 arginine-134 to alanine (human) (UniProt Q6P9H5); experiment: as above
# [9] = target: biotGIMAP6 lacking amino acids 1-36 (human) (UniProt Q6P9H5); experiment: as above
# [10] = target: biotGIMAP6 lacking the 10 terminal amino acid residues (amino acids 283-292) (human) (UniProt Q6P9H5); experiment: as above
# [11] = target: biotGIMAP6 lacking the C-terminal domain (amino acids 244-292) (human) (UniProt Q6P9H5); experiment: as above
substance,measurement,setting,value
myc-tagged human GIMAP6 (from UniProt Q6P9H5 1-292),binding,[1],binds
same,binding,[2],no binding
myc-tagged mouse GIMAP6 (from UniProt Q8K349 1-305),binding,[3],binds weakly
GABARAPL2 of HEK293T cells detected with MAC446 (from UniProt P60520 1-117),binding,[4],binds
same,binding,[5],binds
same,binding,[6],no binding
same,binding,[7],binds
same,binding,[8],binds
same,binding,[9],binds
same,binding,[10],no binding
same,binding,[11],no binding
